Among all 48,000 compounds or so, about 1,200 (2.5%) were called active. Inconclusive results (about 2%) are left out.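 How the source made its calls: active means activation of at least 60% and not above a set upper limit (about 1 call in 100 departs from these limits); inconclusive means activation of 40% to 60%, or above that upper limit; inactive means activation under 40%.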 This is one part of the list.

In the test the target is Probable G-protein coupled receptor 32 (Homo sapiens) (UniProt O75388). Put plainly: qHTS for Agonists of Human Resolvin D1 Receptor DRV1. Further: 0% is about no effect. As to conditions: CHO-K1 GPR32 beta-arrestin PathHunter luminescence, 90 min; at 76.9 µM; stronger effect = higher value; zero percent set by DMSO-only wells. An outline of the steps: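 Engineered CHO-K1 line co-expressing GPR32-ProLink and EA-beta-arrestin. Compound treatment lasted 90 min at 37 °C. Luminescence was recorded after 1 h with substrate at ambient temperature, relative to DMSO basal wells.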
Sequence of UniProt O75388 (O75388 whole entry, looked up): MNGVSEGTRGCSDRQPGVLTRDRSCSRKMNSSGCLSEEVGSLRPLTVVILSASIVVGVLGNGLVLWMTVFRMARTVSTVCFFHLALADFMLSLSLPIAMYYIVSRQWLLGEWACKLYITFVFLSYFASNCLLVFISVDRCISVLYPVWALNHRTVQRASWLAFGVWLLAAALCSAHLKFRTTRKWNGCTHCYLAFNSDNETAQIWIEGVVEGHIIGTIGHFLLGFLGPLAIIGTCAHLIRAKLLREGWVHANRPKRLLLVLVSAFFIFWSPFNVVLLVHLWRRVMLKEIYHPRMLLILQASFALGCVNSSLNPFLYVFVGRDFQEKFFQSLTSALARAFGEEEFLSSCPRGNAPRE
For orientation: In qHTS, concentration-response curves come from the screen itself.
Turning to `CCOC(=O)c1cc(-c2ccccc2)n(CC(=O)N(C)c2ccc(OC)cc2)c1C`, the activation was inactive: -27.8%.

On to `CCOc1ccc(NC(=O)C(NC(=O)C2CCC(C)CC2)C(C)C)cc1` (centres undefined), for which the activation was inactive: -6.59%.

Take `Cc1ccc(Nc2nc(C)cc(C)n2)c(C(=O)O)c1`: the activation is inactive: 10.1%.

As to `COc1ccc(NC(=O)c2sc3nc(C)c(C(=O)Nc4ccc(C)cc4C)c(-c4ccc(C)o4)c3c2N)cc1`, the activation was inactive: -12.6%.

Regarding `CCc1ccc(NC(=O)CN2C(=O)C3(SCC(=O)N3c3ccccc3)c3ccccc32)cc1` (centres undefined), the activation was inactive: -7.83%.

As for `CC1(C)CC(=O)c2cc(-c3nc(-c4ccc(Cl)cc4)cs3)c(=O)n(-c3ccc(Cl)cc3)c2C1`, the activation is inactive: 25.3%.

Regarding `Cc1ccc(Cl)cc1NC(=O)CSC1=Nc2ccccc2C2=NC(Cc3ccccc3)C(=O)N12` (centres undefined), the activation is inactive: -19%.

Take `COc1ccc(NC(=O)Cn2nc(-c3ccncc3)ccc2=O)cc1Cl`: the activation is inactive: -2.3%.

Turning to `CC(C)CCNC(=O)c1ccc2c(c1)NC(=O)C(CS(=O)(=O)Cc1cccc(Br)c1)N2` (centres undefined), the activation was inactive: -23.7%.

`Cc1ccc(NC(=O)/C(C#N)=C/c2ccc(C)o2)cc1`: the activation was inactive: 9.71%.

In the case of `C#CC(C)(CC)NC(=O)c1cnn2c(C(F)F)cc(-c3ccccc3OC)nc12` (centres undefined), the activation was inactive: 7.36%.

Turning to `Cc1cc(C)n(CCc2nc3c4ccccc4nc(N4CCN(c5ccccc5F)CC4)n3n2)n1`, the activation is inactive: 14.9%.

Take `COc1ccc(CCNc2ncnc3c2cnn3-c2cccc(Cl)c2)cc1`: the activation was active: 114%.

With `COc1ccc(OCCCCn2c(C3CC(=O)N(c4cccc(Cl)c4)C3)nc3ccccc32)cc1` (centres undefined), the activation is inactive: 1.25%.

As to `COc1ccc(NC(=O)CSc2nc3ccccc3n2CC(=O)N(C)c2ccc(F)cc2)cc1`, the activation is inactive: -4.61%.

For the compound `Cc1ccc(Cn2ccnc2SCC(=O)NCc2ccc(F)cc2)cc1`, the activation is inactive: -5.65%.

`CCCN1CCN(CCNC(=O)Nc2ccc(OC)c(OC)c2)CC1`: the activation was inactive: -13%.

In the case of `CC(=O)Oc1cccc(O)c1`, the activation was inactive: -23.3%.

Take `CCOC(=O)C1CCN(CC(=O)N2CCCc3c2c(=O)oc2ccc(OCc4ccccc4)cc32)CC1`: the activation is inactive: -10.7%.

For the compound `COc1ccc(-c2onc(C)c2C)cc1S(=O)(=O)N(C)Cc1ccco1`, the activation is inactive: -9.87%.

With `CN1C(=O)C2(SCC(=O)N2c2cccc(C(F)(F)F)c2)c2ccccc21` (centres undefined), the activation was inactive: 6.5%.

On to `CCOC(=O)C1CCC(CN(Cc2ccc(Cl)cc2)S(=O)(=O)c2ccc(Br)cc2)CC1` (centres undefined), for which the activation was inactive: -1.49%.

As for `CCOc1ccc(NC(=O)c2cn(C)c(=O)c3cc(OC)c(OC)cc23)cc1`, the activation is inactive: 12.3%.

In the case of `COc1ccc(OC)c(NC(=O)Cn2c(=O)n(Cc3ccccc3)c(=O)c3ccccc32)c1`, the activation is inactive: -5.41%.

On to `CCn1cc(C(=O)N2CCN(c3cccc(Cl)c3)CC2)c(=O)c2cc(S(=O)(=O)N3CCCCC3)ccc21`, for which the activation was inactive: -7.63%.

On to `COc1cc(OC)cc(C(=O)Nc2ccc3nc(N4CCCCC4)cc(C)c3c2)c1`, for which the activation is inactive: -25.8%.

Take `COc1ccc(C(CNC(=O)c2oc3ccc(C)cc3c2C)N2CCOCC2)cc1` (centres undefined): the activation was inactive: -9.04%.

Regarding `COc1ccc(OC)c(NC(=O)N2CCN(S(=O)(=O)c3ccc4c(ccn4C)c3)CC2)c1`, the activation was inactive: -3.81%.

In the case of `CC(C)Cn1c(=O)c2ccccc2n2c(CCC(=O)N3CCN(c4ccccc4F)CC3)nnc12`, the activation was inactive: -33.3%.

As for `CCCn1c(-c2ccc(S(=O)(=O)N3CCOCC3)cc2)csc1=Nc1ccc(OCC)cc1`, the activation is inactive: 13.9%.

On to `O=C(NCc1ccccc1Cl)C(=O)NCC(c1cccs1)S(=O)(=O)c1cccs1` (centres undefined), for which the activation is inactive: -12.4%.

As for `CCCSCCCNC(=O)C1CCN(c2nn3cc(-c4ccc(F)cc4)nc3s2)CC1`, the activation was inactive: 2.42%.

Consider `Cc1ccc2nc(-c3ccc(O)cc3)c(Nc3ccc4c(c3)OCCO4)n2c1`, for which the activation was inactive: -16.7%.

As to `COC(=O)c1ccccc1NC(=O)Cn1c(=O)n(Cc2ccc(C(=O)NCc3ccc4c(c3)OCO4)cc2)c(=O)c2ccccc21`, the activation was inactive: -8.72%.

As for `Cc1ccc(C)n1-c1nnc(N2CCCC(C(=O)Nc3ccc(C(C)C)cc3)C2)s1` (centres undefined), the activation is inactive: -0.499%.

In the case of `COc1cccc(C(=O)c2sc3nc(-c4ccccc4)cc(C(F)(F)F)c3c2N)c1`, the activation was inactive: -17%.

`Cc1ccc(C)c(N2C(=O)N(Cc3cc(=O)n4ccccc4n3)c3ccccc3S2(=O)=O)c1`: the activation was inactive: -7.77%.

Consider `CCOC(=O)c1c(C)oc2ncnc(Nc3ccc(OCC)cc3)c12`, for which the activation was inactive: -0.746%.

Regarding `Cc1ccc(CNC(=O)c2ccc3c(c2)nc(C)n3-c2cc(C)cc(C)c2)cc1`, the activation was inactive: -5.6%.

On to `O=C(COc1ccccc1F)Nc1ccc(-c2nc3ccccc3s2)cc1`, for which the activation is inactive: -13.7%.

As to `O=C(CN1C(=O)CCc2cc(S(=O)(=O)N3CCOCC3)ccc21)NCc1ccc(F)cc1`, the activation was inactive: 27.7%.

With `CCc1cccc(NC(=O)Nc2csc3c2CCCC3)c1`, the activation was inactive: 24.5%.

Take `COc1cc(C)ccc1OCCSc1nc2ccc(NC(=O)c3ccc(F)cc3)cc2s1`: the activation is inactive: -3.18%.

On to `CCCCOc1ccc(C(=O)Nc2ccc(-c3nc4ccccc4s3)cc2C)cc1`, for which the activation was inactive: -30.7%.

As to `Cn1ccc2cc(S(=O)(=O)N3CCC(C(=O)NCCc4ccccc4)CC3)ccc21`, the activation is inactive: 10%.

With `N#Cc1ccccc1NC(=O)Cn1cnc2onc(-c3cccc(F)c3)c2c1=O`, the activation was inactive: 1.04%.

With `Cc1ccc(N(CC(=O)NCCc2ccccc2)S(=O)(=O)N(C)C)cc1`, the activation was inactive: -13.5%.

With `COc1cccc(NC(=O)CNC(=O)Cn2c(C)cc3ccccc3c2=O)c1`, the activation is inactive: -4.18%.

`CCOc1cc(CNc2ccc(O)cc2)ccc1OCc1ccc(Cl)cc1`: the activation is inactive: 8.1%.

As to `CN(C)S(=O)(=O)c1ccc(C(=O)N2CC(=O)Nc3ccc(Br)cc3C2c2ccc(F)cc2)cc1` (centres undefined), the activation was inactive: -25.6%.

Turning to `Cc1ccc(CNC(=O)c2ccc(Cn3c(SCc4ccccc4F)nc4cccnc43)cc2)cc1`, the activation was inactive: -23.1%.

Take `CC1CCN(C(=O)Cn2c(=O)oc3cc(S(=O)(=O)N4CCCCC4)ccc32)CC1`: the activation is inactive: 29.6%.

Regarding `COc1ccc(CNC(=O)CN(c2ccccc2)S(=O)(=O)N(C)C)cc1`, the activation is inactive: -2.87%.

Regarding `CCOC(=O)c1cc2c(=O)n3ccccc3nc2n(CCCOC)c1=NC(=O)C(C)Oc1ccccc1` (centres undefined), the activation was inactive: -2.96%.

Consider `Cc1cc(=O)n(Cc2cccc(Cl)c2)c2c1c(C)nn2-c1ccccc1`, for which the activation was inactive: -12.1%.

Consider `Cc1cc(C)cc(NC2=CC(c3cccc(F)c3)N(c3cc(C)cc(C)c3)C2=O)c1` (centres undefined), for which the activation is inactive: 2.35%.

Consider `CCN(CC)C(=O)c1sc2c(c1C)c(=O)n(-c1ccccc1)c(=O)n2CC(=O)Nc1ccc(C)cc1C`, for which the activation is inactive: -5.5%.

With `Cc1cccc(-n2c(=O)c3c4c(sc3n3cnnc23)CCCC4)c1`, the activation was inactive: 9.05%.

As for `CCN1CCN(c2c(S(=O)(=O)c3ccc(C)c(C)c3)cnc3cc(OC)c(OC)cc23)CC1`, the activation was inactive: -14.9%.

As to `CCOc1ccc(CC(=O)NCCc2sc3nc(-c4ccc(OC)cc4)nn3c2C)cc1`, the activation was inactive: -18.1%.

`CCN(CC)S(=O)(=O)c1nnc(NC(=O)COc2ccc(Cl)cc2)s1`: the activation was inactive: 45.9%.

On to `CCCCSc1ncnc2c1c(-c1ccccc1)cn2-c1cccc(F)c1`, for which the activation is inactive: 2.62%.

For `CCN(CC)CCNC(=O)c1ccc2c(c1)sc1nc(-c3ccc(F)cc3)cn12`, the activation is inactive: -3.59%.

Consider `CCOC(=O)Cn1cnc2onc(-c3ccc(F)cc3)c2c1=O`, for which the activation is inactive: -0.513%.

In the case of `COc1ccc(C(CNC(=O)COc2ccc(Cl)c(C)c2)N2CCOCC2)cc1` (centres undefined), the activation is inactive: -14.2%.

In the case of `CC(=O)Nc1cc(NC(C)=O)cc(-c2nc3ccccc3[nH]2)c1`, the activation was inactive: 48.4%.

For the compound `Cc1cc(C)cc(NS(=O)(=O)c2ccc3c(c2)NC(=O)C(C)S3)c1` (centres undefined), the activation was inactive: -11.4%.

With `CCOC(=O)c1c(C)oc2nc(C)nc(Nc3ccc(CC)cc3)c12`, the activation is inactive: -5.84%.

With `CCn1c(C(=O)N2CCC(C(=O)NCCc3ccc(OC)cc3OC)CC2)cc2sccc21`, the activation is inactive: -6.39%.

As for `CCOC(=O)C(CC)Sc1ccc2nnc(CCNS(=O)(=O)c3ccc(C)cc3)n2n1` (centres undefined), the activation was inactive: -17%.

For `COc1cccc2c1Oc1ncccc1N(C(=O)Nc1ccc(F)c(Cl)c1)C2`, the activation is inactive: -25.6%.

On to `CCc1ccc(S(=O)(=O)c2nnn3c2nc(NC2CCCCCC2)c2sccc23)cc1`, for which the activation is inactive: -3.07%.

As to `Cc1c(C(=O)NCc2ccccc2Br)oc2c1-c1[nH]ncc1CC2`, the activation is inactive: -1.66%.

As to `O=C(O)CC[C@@H](C(=O)O)N1C(=O)c2ccccc2C1=O`, the activation is inactive: -1.6%.

Take `CCN1CCN(c2c(S(=O)(=O)c3ccc(OC)cc3)cnc3cc(OC)c(OC)cc23)CC1`: the activation was inactive: -10.9%.

In the case of `COc1ccccc1Cc1nc2ccccc2[nH]c1=O`, the activation was inactive: -2.13%.

In the case of `COc1ccc(NC(=O)c2ccc(-c3nc(CSc4ccccc4)c(C)o3)cc2)cc1OC`, the activation was inactive: 15.9%.

Take `Cc1ccc(C)c(CN2C(=O)c3ccccc3S(=O)c3ccc(C(=O)NCc4ccccc4)cc32)c1` (centres undefined): the activation is inactive: -0.265%.

Turning to `CCOCCCNC(=O)C1CCC(CNS(=O)(=O)c2ccc(NC(C)=O)cc2)CC1` (centres undefined), the activation was inactive: -8.08%.

As for `CCOC(=O)c1ccc(N2C(=O)c3n[nH]c(-c4cccs4)c3C2c2cccc(F)c2)cc1` (centres undefined), the activation is inactive: -13.9%.

On to `CCOc1ccccc1NC(=O)C(CC(C)C)NS(=O)(=O)c1ccc2c(c1)CCN2C(C)=O` (centres undefined), for which the activation was inactive: -5.92%.

Take `Cc1oc(-c2cccc(Br)c2)nc1CN1CCC(C(=O)NCCc2ccc(Cl)cc2)CC1`: the activation is inactive: -9.56%.

For `CCc1ccc(NC(=O)CC2C(=O)OCCN2CC)cc1` (centres undefined), the activation was inactive: 31.4%.

As to `CC(C)CNC(=O)CCSc1nc(-c2ccc3c(c2)OCO3)cc(C(F)(F)F)n1`, the activation is inactive: -0.977%.

The record behind these values is PubChem BioAssay AID1346428 (National Center for Advancing Translational Sciences (NCATS), 2018).
